# Results taken from the antibiotic and cytotoxicity screens of Wong et al. (2023).
# The other results are listed elsewhere or left out.
# Test system: HSkMC (human skeletal muscle cells)
# Experiment: cytotoxicity call (relative viability < 0.9)
# Settings: 10 µM
row,Compound,cytotoxicity call
1,CC(C)NC(=O)N(C)C[C@H]1Oc2ccc(NS(=O)(=O)c3ccccc3)cc2C(=O)N([C@@H](C)CO)C[C@H]1C,inactive
2,C[C@H]1CN([C@@H](C)CO)C(=O)c2cc(NC(=O)CCCCCC(=O)Nc3ccccc3N)ccc2O[C@@H]1CN(C)CC1CCCCC1,inactive
3,C[C@H](CO)N1C[C@H](C)[C@@H](CN(C)CC2CCCCC2)Oc2ccc(NC(=O)Cc3cn(C)c4ccccc34)cc2C1=O,inactive
4,C[C@@H]1CN([C@@H](C)CO)C(=O)c2cc(NC(=O)CCCCCC(=O)Nc3ccccc3N)ccc2O[C@@H]1CN(C)C(=O)Nc1ccc(C(F)(F)F)cc1,inactive
5,C[C@@H]1CN([C@H](C)CO)C(=O)c2cc(NS(=O)(=O)c3cn(C)cn3)ccc2O[C@H]1CN(C)C(=O)NC1CCCCC1,inactive
6,Cc1ccc(S(=O)(=O)N(C)C[C@@H]2Oc3c(NC(=O)c4cnccn4)cccc3C(=O)N([C@@H](C)CO)C[C@@H]2C)cc1,inactive
7,CC1(C)C[C@@](CCN)(Cc2ccccc2)CCO1,inactive
8,O=C(O)Cc1ccc(O)c(O)c1,inactive
9,COc1ccc(S(=O)(=O)Nc2ccc3c(c2)C(=O)N([C@H](C)CO)C[C@H](C)[C@H](CN(C)C(=O)CCC(F)(F)F)OCCCC[C@@H](C)O3)cc1,inactive
10,COC(=O)CC1C2(C)CC34OC5(C)OC6(C7C(=C(O)C(C)C)C(=O)OC(c8ccoc8)C7(C)C(OC(C)=O)C(OC(C)=O)C6(O5)C13C)C(OC(C)=O)C4(O)C2OC(=O)C(C)C (stereo not given),inactive
11,CC(C)C[C@@H]1NC(=O)[C@@H]2C[C@H](C(=O)NCCCCCNC(=O)CS)[C@H](c3ccc(O)cc3)N2C1=O,inactive
12,COc1ccc(NC(=O)N(C)C[C@H]2Oc3ccc(NS(=O)(=O)c4cn(C)cn4)cc3CC(=O)N([C@@H](C)CO)C[C@H]2C)cc1,inactive
13,C[C@@H]1CCCCO[C@H](CN(C)CC2CC2)[C@@H](C)CN([C@H](C)CO)C(=O)c2cc(NC(=O)Nc3ccc4c(c3)OCO4)ccc2O1,inactive
14,CCC(=O)O[C@H]1[C@H](O[C@@H]2[C@@H](C)[C@H](O[C@H]3C[C@@](C)(OC)[C@@H](O)[C@H](C)O3)[C@@H](C)C(=O)O[C@H](CC)[C@@](C)(O)[C@H](O)[C@@H](C)C(=O)[C@H](C)C[C@@]2(C)O)O[C@H](C)C[C@@H]1N(C)C,inactive
15,COc1ccc(S(=O)(=O)N(C)C[C@H]2Oc3cc(-c4ccccc4OC)ccc3S(=O)(=O)N([C@H](C)CO)C[C@@H]2C)cc1,inactive
16,CCCNC(=O)N1C[C@]2(CCN(CC2)S(=O)(=O)c2ccccc2)c2c(n(c3cc(ccc23)OC)C)[C@H]1CO,inactive
17,CCCCCCc1ccc(O)cc1O,active
18,C[C@@H]1CCCCO[C@H](CN(C)S(=O)(=O)c2ccc(Cl)cc2)[C@@H](C)CN([C@@H](C)CO)C(=O)c2cc(NC(=O)NC3CCCCC3)ccc2O1,inactive
19,C[C@H](CO)N1C[C@H](C)[C@H](CN(C)CC2CCCCC2)OCCCC[C@H](C)Oc2ccc(NC(=O)CCCN(C)C)cc2C1=O,inactive
20,COC(=O)c1[nH]c(C(=O)OC)c(O)c1O,inactive

row,Compound,cytotoxicity call
1,C[C@H](CO)N1C[C@H](C)[C@@H](CN(C)Cc2ccc(C(=O)Nc3ccccc3N)cc2)OCc2cnnn2CCCC1=O,inactive
2,C[C@H](CO)N1C[C@H](C)[C@@H](CN(C)S(=O)(=O)c2ccc(Cl)cc2)Oc2ccc(NC(=O)CCN3CCOCC3)cc2CC1=O,inactive
3,COc1ccc([Si](C)(C)[C@@H]2[C@@H](CCOC(=O)NCCCCCC(=O)NO)O[C@@]3(C(=O)N(Cc4ccccc4)c4ccc(NC(=O)[C@@H](C)OC(=O)NCCCCCC(=O)NO)cc43)[C@H]2C)cc1,inactive
4,COc1ccc(NC(=O)Nc2ccc3c(c2)C(=O)N([C@@H](C)CO)C[C@@H](C)[C@@H](CN(C)S(=O)(=O)c2c(C)noc2C)OCCCC[C@@H](C)O3)cc1,inactive
5,Cc1ccc(S(=O)(=O)N(C)C[C@@H]2OCCCC[C@@H](C)Oc3ccc(NC(=O)Nc4ccc(F)cc4)cc3C(=O)N([C@@H](C)CO)C[C@@H]2C)cc1,inactive
6,O=C1N[C@@H](c2ccccc2)COCc2cn(nn2)CC[C@@H](Cc2ccc(C(F)(F)F)cc2)C(=O)N[C@@H](c2ccccc2)COCc2cn(nn2)CC[C@H]1Cc1ccc(C(F)(F)F)cc1,inactive
7,C[C@@H]1CCCCO[C@H](CN(C)S(=O)(=O)c2cccs2)[C@@H](C)CN([C@H](C)CO)C(=O)c2cc(NC(=O)Nc3ccc(F)cc3)ccc2O1,inactive
8,COC(=O)C1C(O)CCC2CN3CCc4c([nH]c5ccccc45)C3CC21 (stereo not given),inactive
9,COc1ccc(NC(=O)N(C)C[C@H]2OCCCC[C@@H](C)Oc3ccc(NS(=O)(=O)c4ccccc4)cc3C(=O)N([C@@H](C)CO)C[C@H]2C)cc1,inactive
10,COc1ccc(S(=O)(=O)N(C)C[C@H]2Oc3ccc(NC(=O)NC(C)C)cc3CC(=O)N([C@@H](C)CO)C[C@H]2C)cc1,inactive
11,C[C@@H]1CN([C@H](C)CO)C(=O)Cc2cc(NC(=O)Nc3cccc4ccccc34)ccc2O[C@H]1CN(C)Cc1ccc(Cl)c(Cl)c1,inactive
12,Cc1ccc(S(=O)(=O)n2cc([C@@H]3CC(=O)N(C(=O)OCc4ccccc4)[C@@H]3C(=O)Nc3cccc4cccnc34)c3ccccc32)cc1,inactive
13,C[C@H]1CCCCO[C@H](CN(C)C(=O)C2CCCCC2)[C@@H](C)CN([C@@H](C)CO)C(=O)c2cc(NC(=O)Nc3ccccc3)ccc2O1,inactive
14,Cc1ccc(S(=O)(=O)Nc2ccc3c(c2)C(=O)N([C@@H](C)CO)C[C@@H](C)[C@@H](CN(C)C(=O)Nc2ccccc2)OCCCC[C@H](C)O3)cc1,inactive
15,Cc1cccn2c(=O)c3cc(S(=O)(=O)c4ccc(Br)cc4)c(=N)n(CCCN4CCOCC4)c3nc12,inactive
16,O=c1nc(NCc2cccnc2)cn[nH]1,inactive
17,C[C@@H]1CN([C@H](C)CO)C(=O)c2cc(NS(C)(=O)=O)ccc2O[C@@H]1CN(C)C(=O)Nc1ccc(F)cc1,inactive
18,CCC1(O)C(=O)OCc2c1cc1n(c2=O)Cc2cc3cc(O)ccc3nc2-1 (stereo not given),inactive
19,CC(=O)OCCn1c(=O)[nH]c(=O)c2nsnc21,inactive
20,C[C@@H]1CCCCO[C@@H](CN(C)S(=O)(=O)c2ccccc2)[C@H](C)CN([C@H](C)CO)C(=O)c2cc(NS(C)(=O)=O)ccc2O1,inactive
